According to PMC9911399, “Two distinct binding modes provide the RNA-binding protein RbFox with extraordinary sequence specificity”:
Where a chain is given by its changes, count along the chain named. The list shows a part of the results.

T1: RBFOX1 RRM RbFoxmut (Fox-RRM*) (Homo sapiens, UniProt Q9NWB1 109-208, R118D;E147R;N151S;E152T)
T1 sequence: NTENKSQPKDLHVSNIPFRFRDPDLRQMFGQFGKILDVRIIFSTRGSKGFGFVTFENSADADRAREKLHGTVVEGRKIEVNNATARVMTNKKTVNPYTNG

B1: CUCUACG (DNA:RNA)
RNA: GGGAGACCGGAAUUCAGAUUGUCCCUCUACGUUAAAUCCCGUCGUAGCCACCA
DNA 1: CAATCTGAATTCCGGTCTCCC
DNA 2: TGGTGGCTACGACGGGATT
B2: ACUCCUC (DNA:RNA)
RNA: GGGAGACCGGAAUUCAGAUUGUCCACUCCUCUUAAAUCCCGUCGUAGCCACCA
DNA 1: CAATCTGAATTCCGGTCTCCC
DNA 2: TGGTGGCTACGACGGGATT
B3: GACCCAA (DNA:RNA)
RNA: B2 RNA with A25G, C26A, U27C, U30A, C31A
DNA 1: CAATCTGAATTCCGGTCTCCC
DNA 2: TGGTGGCTACGACGGGATT
B4: CGGAGGG (DNA:RNA)
RNA: B1 RNA with U26G, C27G, U28A, A29G, C30G
DNA 1: CAATCTGAATTCCGGTCTCCC
DNA 2: TGGTGGCTACGACGGGATT
B5: AUAACUU (DNA:RNA)
RNA: B2 RNA with C26U, U27A, C28A, C31U
DNA 1: CAATCTGAATTCCGGTCTCCC
DNA 2: TGGTGGCTACGACGGGATT
B6: CGGAGCC (DNA:RNA)
RNA: B1 RNA with U26G, C27G, U28A, A29G, G31C
DNA 1: CAATCTGAATTCCGGTCTCCC
DNA 2: TGGTGGCTACGACGGGATT
B7: AAAGACA (DNA:RNA)
RNA: B1 RNA with C25A, U26A, C27A, U28G, G31A
DNA 1: CAATCTGAATTCCGGTCTCCC
DNA 2: TGGTGGCTACGACGGGATT
B8: UCUAGCU (DNA:RNA)
RNA: B2 RNA with A25U, C28A, C29G, U30C, C31U
DNA 1: CAATCTGAATTCCGGTCTCCC
DNA 2: TGGTGGCTACGACGGGATT
B9: UCCUGAC (DNA:RNA)
RNA: B2 RNA with A25U, U27C, C28U, C29G, U30A
DNA 1: CAATCTGAATTCCGGTCTCCC
DNA 2: TGGTGGCTACGACGGGATT
B10: UAGCUGU (DNA:RNA)
RNA: B2 RNA with A25U, C26A, U27G, C29U, U30G, C31U
DNA 1: CAATCTGAATTCCGGTCTCCC
DNA 2: TGGTGGCTACGACGGGATT
B11: UCAUAAU (DNA:RNA)
RNA: B1 RNA with C25U, U26C, C27A, C30A, G31U
DNA 1: CAATCTGAATTCCGGTCTCCC
DNA 2: TGGTGGCTACGACGGGATT
B12: UGCCUAU (DNA:RNA)
RNA: B2 RNA with A25U, C26G, U27C, C29U, U30A, C31U
DNA 1: CAATCTGAATTCCGGTCTCCC
DNA 2: TGGTGGCTACGACGGGATT
B13: UGUCGAA (DNA:RNA)
RNA: B2 RNA with A25U, C26G, C29G, U30A, C31A
DNA 1: CAATCTGAATTCCGGTCTCCC
DNA 2: TGGTGGCTACGACGGGATT
B14: UCUCGGA (DNA:RNA)
RNA: B2 RNA with A25U, C29G, U30G, C31A
DNA 1: CAATCTGAATTCCGGTCTCCC
DNA 2: TGGTGGCTACGACGGGATT
B15: GGUGGGA (DNA:RNA)
RNA: B2 RNA with A25G, C26G, C28G, C29G, U30G, C31A
DNA 1: CAATCTGAATTCCGGTCTCCC
DNA 2: TGGTGGCTACGACGGGATT
B16: UCGAUUC (DNA:RNA)
RNA: B2 RNA with A25U, U27G, C28A, C29U
DNA 1: CAATCTGAATTCCGGTCTCCC
DNA 2: TGGTGGCTACGACGGGATT
B17: CCCCCCC (DNA:RNA)
RNA: B2 RNA with A25C, U27C, U30C
DNA 1: CAATCTGAATTCCGGTCTCCC
DNA 2: TGGTGGCTACGACGGGATT
B18: UCUCUCA (DNA:RNA)
RNA: B2 RNA with A25U, C29U, U30C, C31A
DNA 1: CAATCTGAATTCCGGTCTCCC
DNA 2: TGGTGGCTACGACGGGATT
B19: GUUGAAG (DNA:RNA)
RNA: B1 RNA with C25G, C27U, U28G, C30A
DNA 1: CAATCTGAATTCCGGTCTCCC
DNA 2: TGGTGGCTACGACGGGATT
B20: GGCAUCA (DNA:RNA)
RNA: B1 RNA with C25G, U26G, U28A, A29U, G31A
DNA 1: CAATCTGAATTCCGGTCTCCC
DNA 2: TGGTGGCTACGACGGGATT

Each binder was assayed against T1, RBFOX1 RRM RbFoxmut (Fox-RRM*) (assay: EMSA; HiTS-Eq, 1 nM pool, 10 min; buffer printed only for the single-RNA assays: 10 mM Tris pH 7.5, 150 mM NaCl, 3.4 mM EDTA, 0.001% NP-40, 30 C). Settings: tags: His6 N-terminal (pET28a); label: 5' 32P.
Summary of the method: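 Purified wild-type or mutant RbFox RRM at increasing concentrations was equilibrated with 1 nM of 5′-radiolabelled RNA carrying 7 randomized nucleotides for 10 min in 50 µL. Unbound RNA was separated by 8% native PAGE and sequenced. Relative association constants came from read-count changes of each RNA species compared with the control reaction, normalised to the cognate motif.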

First: B1
Second: B2
The binding signal of the first is higher: 0.131 KA relative to UGCAUGU for the first, 0.0805 KA relative to UGCAUGU for the second.

First: B3
Second: B4
The binding signal of the first is lower: 0.0621 KA relative to UGCAUGU for the first, 0.0657 KA relative to UGCAUGU for the second.

First: B5
Second: B6
The binding signal of the first is lower: 0.103 KA relative to UGCAUGU for the first, 0.159 KA relative to UGCAUGU for the second.

First: B7
Second: B8
The binding signal of the first is lower: 0.0717 KA relative to UGCAUGU for the first, 0.0854 KA relative to UGCAUGU for the second.

First: B9
Second: B10
The binding signal of the first is lower: 0.123 KA relative to UGCAUGU for the first, 0.133 KA relative to UGCAUGU for the second.

First: B11
Second: B12
The binding signal of the first is higher: 0.103 KA relative to UGCAUGU for the first, 0.0874 KA relative to UGCAUGU for the second.

First: B13
Second: B14
The binding signal of the first is higher: 0.103 KA relative to UGCAUGU for the first, 0.0758 KA relative to UGCAUGU for the second.

First: B15
Second: B16
The binding signal of the first is lower: 0.0667 KA relative to UGCAUGU for the first, 0.115 KA relative to UGCAUGU for the second.

Compared with B17, B18 is higher in binding signal: 0.0938 KA relative to UGCAUGU for the first, 0.101 KA relative to UGCAUGU for the second.

First: B19
Second: B20
The binding signal of the first is lower: 0.104 KA relative to UGCAUGU for the first, 0.329 KA relative to UGCAUGU for the second.
